According to article PMC4336329 (PLoS ONE, 2015):
Out of some 310,000 compounds screened, about 14,000 (4.5%) showed an effect of 50% or more. The effect is printed as a negative number. Some of the results follow.

The molecules below were run against human ether-à-go-go-related gene (hERG) potassium channel (human, UniProt Q12809) (assay: primary screen, population patch clamp on CHO cells stably expressing hERG).
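Note: peak tail current of the secondary pulse compared with the same well before compound.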

Chain of human ether-à-go-go-related gene (hERG) potassium channel (Q12809 whole entry, looked up): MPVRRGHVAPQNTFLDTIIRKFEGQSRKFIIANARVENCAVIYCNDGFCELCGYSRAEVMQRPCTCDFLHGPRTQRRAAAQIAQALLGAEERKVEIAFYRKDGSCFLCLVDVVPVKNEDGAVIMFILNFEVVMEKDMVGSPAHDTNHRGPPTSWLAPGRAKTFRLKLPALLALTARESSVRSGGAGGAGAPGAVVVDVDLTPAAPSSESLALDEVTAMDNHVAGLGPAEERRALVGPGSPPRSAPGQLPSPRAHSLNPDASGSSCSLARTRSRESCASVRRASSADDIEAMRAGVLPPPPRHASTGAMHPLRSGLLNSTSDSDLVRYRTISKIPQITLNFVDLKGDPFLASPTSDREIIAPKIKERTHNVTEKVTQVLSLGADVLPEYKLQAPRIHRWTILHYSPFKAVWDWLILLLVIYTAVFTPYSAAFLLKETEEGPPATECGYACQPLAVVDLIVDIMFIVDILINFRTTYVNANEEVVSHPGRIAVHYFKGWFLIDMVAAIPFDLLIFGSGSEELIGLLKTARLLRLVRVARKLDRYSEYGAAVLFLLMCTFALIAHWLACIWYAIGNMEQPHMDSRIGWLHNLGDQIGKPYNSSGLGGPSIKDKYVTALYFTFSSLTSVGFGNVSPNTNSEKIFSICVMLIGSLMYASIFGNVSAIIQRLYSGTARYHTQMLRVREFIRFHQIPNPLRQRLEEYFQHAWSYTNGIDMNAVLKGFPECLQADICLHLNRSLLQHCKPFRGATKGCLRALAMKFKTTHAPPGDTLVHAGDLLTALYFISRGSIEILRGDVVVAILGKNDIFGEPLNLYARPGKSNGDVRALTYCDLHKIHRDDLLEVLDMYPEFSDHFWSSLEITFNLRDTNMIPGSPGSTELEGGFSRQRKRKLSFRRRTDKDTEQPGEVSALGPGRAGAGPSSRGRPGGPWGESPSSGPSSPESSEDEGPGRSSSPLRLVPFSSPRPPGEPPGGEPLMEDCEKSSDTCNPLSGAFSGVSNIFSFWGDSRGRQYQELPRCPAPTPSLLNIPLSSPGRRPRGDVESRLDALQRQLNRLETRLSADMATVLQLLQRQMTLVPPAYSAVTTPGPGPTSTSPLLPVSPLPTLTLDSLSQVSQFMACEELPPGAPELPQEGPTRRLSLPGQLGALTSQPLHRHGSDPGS

SMILES | hERG current change (%, negative = inhibition) at 10uM [%]
N#Cc1c(NC(=O)CN2CCN(C(=O)c3ccco3)CC2)sc2c1CCCCC2 | -32.9
CN(CC(=O)Nc1cccc(F)c1)C(=O)c1ccc(N2CCOCC2)c([N+](=O)[O-])c1 | -35.7
CCC(C(=O)N1CCN(S(C)(=O)=O)CC1)c1ccccc1 (stereo not shown) | -0.12
Cc1ccc(NC(=O)N2CCC(C(=O)c3ccc(F)cc3)CC2)cc1 | -3.84
CCOc1ccc(S(=O)(=O)Nc2cccc(C(=O)NCCCN3CCCC3=O)c2)cc1 | -4.82
Cc1ccc(Nc2ccc([N+](=O)[O-])ccc2=O)cc1 | 16.2
COc1ccc(Cl)cc1NC(=O)C12CCC(C)(C(=O)O1)C2(C)C (stereo not shown) | 5.21
Cc1ccc(-n2sc3ccccc3c2=O)cc1S(=O)(=O)N1CCCCC1 | 16.3
COc1cccc(-c2c(-c3cc(OC)cc(OC)c3)n(C)c3ccc(-c4ccc(OC)nc4)cc23)c1 | 6.9
CC(C)N(Cc1cc2ccccc2[nH]c1=O)C(=O)C(C)(C)C | 6.86
COC(=O)CN1C(=S)N(c2ccc(F)cc2)C(=O)C1CC(=O)Nc1ccc(F)cc1 (stereo not shown) | -33.6
CN(CC(=O)Nc1ccc(C(N)=O)cc1)CC(=O)Nc1ccccc1Cl | -5.04
CCOC(=O)c1nn(-c2cccc(Cl)c2)c(C)c1C(C)=O | -3.38
COCCSc1ccccc1C(=O)Nc1cccnc1 | 3.15
C=CCNC(=O)c1n[nH]c2c1CC(C(C)(C)CC)CC2 (stereo not shown) | 7
COCCCn1c(=O)c2ccccc2n(CC(=O)Nc2ccc3c(c2)OCCO3)c1=O | 12.4
Cc1nn(CC2CC2)c(=O)n1N(C)c1ncc(C(F)(F)F)cc1Cl | -10
CC(=O)N1CCC(C(=O)Nc2ccc(S(=O)(=O)N3CCC(C)CC3)cc2)CC1 | -3.19
O=C(NC(=S)N(Cc1ccccc1)Cc1ccccc1)c1ccccc1F | 18.5
COc1cccc(C2C3=C(CC(C)(C)CC3=O)Nc3cc(OC)c(OC)cc32)c1 (stereo not shown) | 12.8
CCn1nc(C)c(NC(=O)CCCSc2nc(-c3ccco3)cc(C(F)(F)F)n2)c1C | -6.15
C=C(C)Cn1c(NCCC)nc2c1c(=O)n(C)c(=O)n2C | 0.937
COc1ccc(Cl)cc1NC(=S)Nc1cccnc1 | 12.3
CCOC1=C/C(=C/c2c(N)n3oc(C)cc3nc2=O)C=CC1=O | 16.7
CCOC(=O)c1cnc(-n2cc(C)cn2)nc1NCc1ccc2c(c1)OCO2 | -15.6
CCCC(=O)n1nc(-c2ccc(Cl)cc2)nc1SC | 22.1
CCCOc1ccc(Cc2nn[nH]n2)cc1 | 10.8
COc1cccc(NC(=O)Cn2c3ccc(F)cc3c3nc4n(c(=O)c32)CCS4)c1 | 12.1

SMILES | hERG current change (%, negative = inhibition) at 10uM [%]
Cc1ccc(C(=O)Cn2c(N3CCOCC3)nc3c2c(=O)n(C)c(=O)n3C)cc1 | -1.58
CCCCNC(=O)C1CC(=O)N(CCc2ccc(C)cc2)C1 (stereo not shown) | -0.519
N#CCCN1CCN(S(=O)(=O)c2ccc3c(c2)CCC3)CC1 | 6.04
CS(=O)(=O)N(CC(=O)Nc1ccccc1-c1ccccc1)c1cccc(F)c1 | 8.25
C/C(O)=c1/c(=O)nc2cccc3c2=c1c1ccccc1c3=O | -8.5
CCN(CC)S(=O)(=O)c1cccc(C(=O)N2CCCc3ccccc32)c1 | -4.48
Cc1cc(C)nc(SCC(=O)c2ccc3c(c2)OCCO3)n1 | -13.3
COc1cc2c(cc1OC)CN(CC(=O)NC(=O)NC(C)(C)C)CC2 | 6.61
Cc1ccc(CS(=O)(=O)c2ccc(C(=O)N3CCCCC3)cc2[N+](=O)[O-])cc1 | 0.513
CCCn1c2ccccc2c2cnn(CC(=O)NCCCN3CCCCC3CC)c(=O)c21 (stereo not shown) | -62.2
Cc1cc(-c2nc(-c3ccc(C(C)(C)C)cc3)no2)no1 | 16.4
COC(=O)c1cc(NC2c3ccccc3C(=O)N2c2cccnc2)cc(C(=O)OC)c1 (stereo not shown) | -27.7
CC(C)Oc1ccc(CNC(=O)C2CCN(C(=O)N3CCOc4ccccc43)CC2)cc1 | -17.8
COc1cc(N=Nc2ccc3ccccc3c2)ccc1O | 9.15
COc1ccccc1N1CCN(C(=O)C(=O)c2c(C)[nH]c3ccccc23)CC1 | 9.07
O=C(NCc1ccc(F)cc1)c1ccc(S(=O)(=O)N2CCCCC2)cc1 | 8.36
Cc1ncc([N+](=O)[O-])n1CCN1C(=O)c2ccccc2C1=O | 3.77
CC(OC(=O)C1=COCCO1)C(=O)NC(C)c1ccc(Cl)cc1Cl (stereo not shown) | -3.25
O=C(COC(=O)c1ccc2ccccc2c1)NCCCc1ccccc1 | 17.7
CCN1CCN(c2nnc(-c3ccc(F)cc3)c3ccccc23)CC1 | -48.4
O=[n+]1c2c(n([O-])c3cc(Cl)ccc31)CCCC2 | -0.318
COc1cc(Br)c(C(=O)c2nccc3cc(OC)c(OC)cc23)cc1OC | -14.5
CN(C)C(=O)c1ccc(-c2cc(C(F)(F)F)n(C)n2)s1 | 5.87
CCn1c(=O)cc(OCC(=O)N2CCCC2)c2ccccc21 | 7.8
COc1ccc(NS(=O)(=O)c2ccc(NC(=O)c3ccc(N(C)S(C)(=O)=O)cc3)cc2)cc1 | 11.7
CC(C)CNC(=O)CN(c1ccccc1)S(=O)(=O)c1ccccc1[N+](=O)[O-] | 2.38
COc1ccc(C2(C)NC(=O)N(CC(=O)Nc3ccc(S(=O)(=O)N4CCCC4)cc3)C2=O)cc1 (stereo not shown) | -2.91
